Laboratory results taken from the antibiotic and cytotoxicity screens of Wong et al. (2023).
The other results are listed elsewhere or left out.

Columns and labels:
HSkMC = human skeletal muscle cells; experiment: cytotoxicity call (relative viability < 0.9); details: 10 µM
HepG2 = experiment: cytotoxicity call (relative viability < 0.9); details: 10 µM
S. aureus RN4220 = experiment: growth inhibition call (relative growth <= 0.2); details: 50 µM

Compound | cytotoxicity call (HSkMC) | cytotoxicity call (HepG2) | growth inhibition call (S. aureus RN4220)
COc1ccc(NC(=O)N(C)C[C@H]2OCCCC[C@@H](C)Oc3ccc(NC(=O)Nc4ccc(C(F)(F)F)cc4)cc3C(=O)N([C@@H](C)CO)C[C@@H]2C)cc1 | inactive | inactive | inactive
C[C@H](CO)N1C[C@H](C)[C@@H](CN(C)C(=O)Nc2ccccc2)Oc2ccc(NC(=O)CCN3CCOCC3)cc2C1=O | inactive | inactive | inactive
C[C@@H]1CCCCO[C@H](CN(C)Cc2ccc(C(F)(F)F)cc2)[C@H](C)CN([C@@H](C)CO)C(=O)c2cc(NS(=O)(=O)c3ccc(Cl)cc3)ccc2O1 | active | active | inactive
CCOC(=O)c1cccc(C(=O)O)n1 | inactive | inactive | inactive
CC(=O)Nn1cc(C(=O)O)c2ccccc2c1=O | inactive | inactive | inactive
C[C@H]1CN([C@@H](C)CO)C(=O)Cc2cc(NC(=O)CCN3CCOCC3)ccc2O[C@@H]1CN(C)S(C)(=O)=O | inactive | inactive | inactive
C[C@@H]1CN([C@H](C)CO)C(=O)c2c(c3ccccc3n2C)-c2ccccc2CO[C@H]1CN(C)C(=O)Nc1ccc(F)cc1 | inactive | inactive | inactive
C[C@@H]1CN([C@@H](C)CO)C(=O)c2cc(NC(=O)Nc3cccc4ccccc34)ccc2O[C@H]1CN(C)Cc1ccc(C(=O)Nc2ccccc2N)cc1 | inactive | inactive | inactive
COc1ccc(S(=O)(=O)Nc2ccc3c(c2)C(=O)N([C@@H](C)CO)C[C@H](C)[C@H](CN(C)C(=O)c2ccccc2)OCCCC[C@@H](C)O3)cc1 | inactive | inactive | inactive
